# From PMC7150473
# Protein sequences, listed by entry. Tags and fused reporters are not part of them.
# UniProt Q9Y297: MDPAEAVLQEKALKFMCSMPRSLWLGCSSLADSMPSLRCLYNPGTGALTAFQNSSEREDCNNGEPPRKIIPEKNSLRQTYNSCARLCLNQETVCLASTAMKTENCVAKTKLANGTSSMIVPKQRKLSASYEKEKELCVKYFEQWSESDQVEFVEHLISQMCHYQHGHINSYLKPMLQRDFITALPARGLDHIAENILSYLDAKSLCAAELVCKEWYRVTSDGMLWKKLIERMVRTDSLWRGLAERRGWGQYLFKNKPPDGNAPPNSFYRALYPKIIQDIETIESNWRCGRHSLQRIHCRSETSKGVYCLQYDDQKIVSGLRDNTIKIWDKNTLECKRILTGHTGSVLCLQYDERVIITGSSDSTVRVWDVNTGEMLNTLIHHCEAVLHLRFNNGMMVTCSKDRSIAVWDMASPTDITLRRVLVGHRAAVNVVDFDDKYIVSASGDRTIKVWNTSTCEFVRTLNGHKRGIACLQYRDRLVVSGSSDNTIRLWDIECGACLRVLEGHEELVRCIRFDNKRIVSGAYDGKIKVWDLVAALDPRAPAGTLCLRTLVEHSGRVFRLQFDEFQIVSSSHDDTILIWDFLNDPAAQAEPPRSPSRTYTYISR
# Read-outs that look alike come from different tables or passages of the source. Results are given in words; binding and its absence hold for the method and conditions named. Binding seen in cells or lysates may run through a third protein. Some binding calls cover weakened binding; strength is not graded here.
# What was measured:
# Flag-YAP1-1γ (human) [1] = molecular target: Flag-YAP1-1γ (human) (UniProt P46937); assay: co-IP; HEK293T co-transfected with Flag-YAP1 and the partner; RIPA lysate, 500 μg, antibody beads overnight; IP for Flag (YAP1), immunoblot for the partner; β-TRCP panel in the absence of MG132
# Flag-YAP1-2γ (human) [2] = molecular target: Flag-YAP1-2γ (human) (UniProt P46937); assay: as above
# Flag-YAP1-1γ (human) [3] = molecular target: Flag-YAP1-1γ (human) (UniProt P46937); assay: as above; remark: listed apart in the source
# Flag-YAP1-2γ (human) [4] = molecular target: Flag-YAP1-2γ (human) (UniProt P46937); assay: as above; remark: listed apart in the source
# [5] = molecular target: Flag-YAP1-1δ (L3.6-YAP1-1δ cells) (human) (UniProt P46937); assay: co-IP; L3.6-YAP1-1δ and L3.6-YAP1-2δ stable cells, LCD for 3 days, then HCD for 24 h; IP for Flag (YAP1), immunoblot for endogenous partners
molecule,measurement,setting,value
HA-tagged β-TRCP (from UniProt Q9Y297 1-605),binding,Flag-YAP1-1γ (human) [1],binds
same,binding,Flag-YAP1-2γ (human) [2],binds
"PTPN14 (transfected) (enzyme, UniProt Q15678 1-1187) MPFGLKLRRTRRYNVLSKNCFVTRIRLLDSNVIECTLSVESTGQECLEAVAQRLELRETHYFGLWFLSKSQQARWVELEKPLKKHLDKFANEPLLFFGVMFYVPNVSWLQQEATRYQYYLQVKKDVLEGRLRCTLDQVIRLAGLAVQADFGDYNQFDSQDFLREYVLFPMDLALEEAVLEELTQKVAQEHKAHSGILPAEAELMYINEVERLDGFGQEIFPVKDNHGNCVHLGIFFMGIFVRNRIGRQAVIYRWNDMGNITHNKSTILVELINKEETALFHTDDIENAKYISRLFATRHKFYKQNKICTEQSNSPPPIRRQPTWSRSSLPRQQPYILPPVHVQCGEHYSETHTSQDSIFHGNEEALYCNSHNSLDLNYLNGTVTNGSVCSVHSVNSLNCSQSFIQASPVSSNLSIPGSDIMRADYIPSHRHSAIIVPSYRPTPDYETVMRQMKRGILHTDSQSQSLRNLNIINTHAYNQPEDLVYSQPEMRERHPYTVPYGPQGVYSNKLVSPSDQRNPKNNVVPSKPGASAISHTVSTPELANMQLQGSHNYSTAHMLKNYLFRPPPPYPRPRPATSTPDLASHRHKYVSGSSPDLVTRKVQLSVKTFQEDSSPVVHQSLQEVSEPLTATKHHGTVNKRHSLEVMNSMVRGMEAMTLKSLHLPMARRNTLREQGPPEEGSGSHEVPQLPQYHHKKTFSDATMLIHSSESEEEEEEAPESVPQIPMLREKMEYSAQLQAALARIPNKPPPEYPGPRKSVSNGALRQDQASLPPAMARARVLRHGPAKAISMSRTDPPAVNGASLGPSISEPDLTSVKERVKKEPVKERPVSEMFSLEDSIIEREMMIRNLEKQKMAGLEAQKRPLMLAALNGLSVARVSGREENRVDATRVPMDERFRTLKKKLEEGMVFTEYEQIPKKKANGIFSTAALPENAERSRIREVVPYEENRVELIPTKENNTGYINASHIKVVVGGAEWHYIATQGPLPHTCHDFWQMVWEQGVNVIAMVTAEEEGGRTKSHRYWPKLGSKHSSATYGKFKVTTKFRTDSVCYATTGLKVKHLLSGQERTVWHLQYTDWPDHGCPEDVQGFLSYLEEIQSVRRHTNSMLEGTKNRHPPIVVHCSAGVGRTGVLILSELMIYCLEHNEKVEVPMMLRLLREQRMFMIQTIAQYKFVYQVLIQFLQNSRLI",binding,Flag-YAP1-1γ (human) [3],no binding
same,binding,Flag-YAP1-2γ (human) [4],binds
"PTPN14 (endogenous, L3.6 cells) (enzyme, UniProt Q15678 1-1187) MPFGLKLRRTRRYNVLSKNCFVTRIRLLDSNVIECTLSVESTGQECLEAVAQRLELRETHYFGLWFLSKSQQARWVELEKPLKKHLDKFANEPLLFFGVMFYVPNVSWLQQEATRYQYYLQVKKDVLEGRLRCTLDQVIRLAGLAVQADFGDYNQFDSQDFLREYVLFPMDLALEEAVLEELTQKVAQEHKAHSGILPAEAELMYINEVERLDGFGQEIFPVKDNHGNCVHLGIFFMGIFVRNRIGRQAVIYRWNDMGNITHNKSTILVELINKEETALFHTDDIENAKYISRLFATRHKFYKQNKICTEQSNSPPPIRRQPTWSRSSLPRQQPYILPPVHVQCGEHYSETHTSQDSIFHGNEEALYCNSHNSLDLNYLNGTVTNGSVCSVHSVNSLNCSQSFIQASPVSSNLSIPGSDIMRADYIPSHRHSAIIVPSYRPTPDYETVMRQMKRGILHTDSQSQSLRNLNIINTHAYNQPEDLVYSQPEMRERHPYTVPYGPQGVYSNKLVSPSDQRNPKNNVVPSKPGASAISHTVSTPELANMQLQGSHNYSTAHMLKNYLFRPPPPYPRPRPATSTPDLASHRHKYVSGSSPDLVTRKVQLSVKTFQEDSSPVVHQSLQEVSEPLTATKHHGTVNKRHSLEVMNSMVRGMEAMTLKSLHLPMARRNTLREQGPPEEGSGSHEVPQLPQYHHKKTFSDATMLIHSSESEEEEEEAPESVPQIPMLREKMEYSAQLQAALARIPNKPPPEYPGPRKSVSNGALRQDQASLPPAMARARVLRHGPAKAISMSRTDPPAVNGASLGPSISEPDLTSVKERVKKEPVKERPVSEMFSLEDSIIEREMMIRNLEKQKMAGLEAQKRPLMLAALNGLSVARVSGREENRVDATRVPMDERFRTLKKKLEEGMVFTEYEQIPKKKANGIFSTAALPENAERSRIREVVPYEENRVELIPTKENNTGYINASHIKVVVGGAEWHYIATQGPLPHTCHDFWQMVWEQGVNVIAMVTAEEEGGRTKSHRYWPKLGSKHSSATYGKFKVTTKFRTDSVCYATTGLKVKHLLSGQERTVWHLQYTDWPDHGCPEDVQGFLSYLEEIQSVRRHTNSMLEGTKNRHPPIVVHCSAGVGRTGVLILSELMIYCLEHNEKVEVPMMLRLLREQRMFMIQTIAQYKFVYQVLIQFLQNSRLI",binding,[5],no binding
